This note sets out measurements from PMC8149886.

By UniProt entry, the sequences of proteins in these tests, tags left out.
UniProt Q04656: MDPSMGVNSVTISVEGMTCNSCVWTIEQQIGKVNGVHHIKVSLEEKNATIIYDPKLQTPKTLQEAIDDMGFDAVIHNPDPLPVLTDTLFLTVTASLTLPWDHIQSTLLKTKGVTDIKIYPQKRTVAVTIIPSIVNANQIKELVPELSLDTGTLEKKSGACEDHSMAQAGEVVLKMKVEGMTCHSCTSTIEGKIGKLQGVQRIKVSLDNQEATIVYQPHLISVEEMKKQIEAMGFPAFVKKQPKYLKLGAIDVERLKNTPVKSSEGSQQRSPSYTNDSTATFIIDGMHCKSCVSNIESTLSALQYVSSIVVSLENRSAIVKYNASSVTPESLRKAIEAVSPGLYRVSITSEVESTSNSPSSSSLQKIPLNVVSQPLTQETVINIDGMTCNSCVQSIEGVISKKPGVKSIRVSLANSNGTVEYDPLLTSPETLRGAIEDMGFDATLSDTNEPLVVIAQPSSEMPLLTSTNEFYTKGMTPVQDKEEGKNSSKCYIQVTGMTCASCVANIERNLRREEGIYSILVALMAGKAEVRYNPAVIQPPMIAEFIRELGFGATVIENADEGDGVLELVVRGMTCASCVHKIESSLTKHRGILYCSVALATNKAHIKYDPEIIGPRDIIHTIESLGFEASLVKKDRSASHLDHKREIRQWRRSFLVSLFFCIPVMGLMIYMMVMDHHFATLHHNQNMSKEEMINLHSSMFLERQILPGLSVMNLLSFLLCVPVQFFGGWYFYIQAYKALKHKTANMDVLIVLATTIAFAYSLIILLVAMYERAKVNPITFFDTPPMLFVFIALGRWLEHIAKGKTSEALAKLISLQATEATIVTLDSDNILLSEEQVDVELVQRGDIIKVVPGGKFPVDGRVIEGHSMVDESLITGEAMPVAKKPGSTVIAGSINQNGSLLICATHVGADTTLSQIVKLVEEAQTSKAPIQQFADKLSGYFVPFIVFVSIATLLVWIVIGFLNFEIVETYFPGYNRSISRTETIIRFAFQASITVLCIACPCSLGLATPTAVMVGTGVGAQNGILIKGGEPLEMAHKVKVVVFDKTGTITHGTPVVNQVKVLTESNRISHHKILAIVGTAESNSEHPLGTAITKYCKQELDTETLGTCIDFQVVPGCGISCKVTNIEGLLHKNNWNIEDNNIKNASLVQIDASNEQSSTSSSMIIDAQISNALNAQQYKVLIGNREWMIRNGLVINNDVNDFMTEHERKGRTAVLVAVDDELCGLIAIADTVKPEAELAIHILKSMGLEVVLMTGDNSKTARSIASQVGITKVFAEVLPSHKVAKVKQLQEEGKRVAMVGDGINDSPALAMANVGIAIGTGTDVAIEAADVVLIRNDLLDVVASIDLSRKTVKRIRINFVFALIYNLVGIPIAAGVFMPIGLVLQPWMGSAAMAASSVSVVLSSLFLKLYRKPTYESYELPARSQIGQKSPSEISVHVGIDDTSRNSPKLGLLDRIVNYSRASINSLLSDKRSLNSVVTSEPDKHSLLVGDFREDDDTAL

These are yes or no findings as the source states them, for the method shown. Binding seen in cells or lysates may run through a third protein. Some entries that bind do so weakly or less than the wild type.

In test [1] the target is p62/Sequestosome 1 (SQSTM1) (human (endogenous in HUVEC)) (UniProt Q13501). The test is described as follows: co-IP; ECs with or without VEGF stimulation (Supplementary Fig. 6).
Test [2] deals with P-type ATPase transporter ATP7A (human (endogenous in HUVEC)) (UniProt Q04656). The test is described as follows: proximity ligation; Duolink in situ PLA in fixed, permeabilised HUVECs, VEGF (20 ng/ml) for 30 min; mouse anti-ATP7A and rabbit anti-VEGFR2 primary antibodies; single or no primary antibody as negative control.
Test [3] has the same target. The test is described as follows: co-IP; HUVEC lysates, VEGF (20 ng/ml) for the indicated time; IP with anti-ATP7A antibody, IB with VEGFR2 or ATP7A antibody; lysis buffer pH 7.4, 120 mM NaCl, 1% Triton X-100.
In test [4] the target is myc-ATP7A (human) (UniProt Q04656). The test is described as follows: co-IP; Cos7 cells co-transfected with tagged ATP7A and tagged VEGFR2, with or without VEGF (20 ng/ml); anti-Myc IP and anti-HA IB; IgG as control IP.
The target in test [5] is VEGF receptor type2 (VEGFR2) (human (endogenous in HUVEC)) (UniProt P35968). The test is described as follows: co-IP; HUVECs transfected with control or ATP7A siRNAs, VEGF (20 ng/ml) for 15 and 30 min; IP with VEGFR2 antibody, IB with p62 or VEGFR2 antibodies.

Take “P-type ATPase transporter ATP7A (from UniProt Q04656 1-1500)”: the binding entry in test [1] is on record as “no binding”.

With “VEGF receptor type2 (VEGFR2) (from UniProt P35968 20-1356)”, the binding result in test [2] and in test [3] was “binds” in each case.

Regarding “flag-VEGFR2 (from UniProt P35968 20-1356) (receptor)”, the binding result in test [4] is listed as “binds”.

With “p62/Sequestosome 1 (SQSTM1) (from UniProt Q13501 1-440)”, the binding result in test [5] is “binds”.
